Data taken from paper PMC4336329 (PLoS ONE, 2015).
Screen size: about 310,000 compounds; about 2,200 (0.71%) showed an effect of 50% or more. Effects have a minus sign here. Some of the results follow.

Each compound was assayed against human ether-à-go-go-related gene (hERG) potassium channel (human, UniProt Q12809) (assay: primary screen, population patch clamp on CHO cells stably expressing hERG).
Sequence of human ether-à-go-go-related gene (hERG) potassium channel (Q12809 whole entry, looked up): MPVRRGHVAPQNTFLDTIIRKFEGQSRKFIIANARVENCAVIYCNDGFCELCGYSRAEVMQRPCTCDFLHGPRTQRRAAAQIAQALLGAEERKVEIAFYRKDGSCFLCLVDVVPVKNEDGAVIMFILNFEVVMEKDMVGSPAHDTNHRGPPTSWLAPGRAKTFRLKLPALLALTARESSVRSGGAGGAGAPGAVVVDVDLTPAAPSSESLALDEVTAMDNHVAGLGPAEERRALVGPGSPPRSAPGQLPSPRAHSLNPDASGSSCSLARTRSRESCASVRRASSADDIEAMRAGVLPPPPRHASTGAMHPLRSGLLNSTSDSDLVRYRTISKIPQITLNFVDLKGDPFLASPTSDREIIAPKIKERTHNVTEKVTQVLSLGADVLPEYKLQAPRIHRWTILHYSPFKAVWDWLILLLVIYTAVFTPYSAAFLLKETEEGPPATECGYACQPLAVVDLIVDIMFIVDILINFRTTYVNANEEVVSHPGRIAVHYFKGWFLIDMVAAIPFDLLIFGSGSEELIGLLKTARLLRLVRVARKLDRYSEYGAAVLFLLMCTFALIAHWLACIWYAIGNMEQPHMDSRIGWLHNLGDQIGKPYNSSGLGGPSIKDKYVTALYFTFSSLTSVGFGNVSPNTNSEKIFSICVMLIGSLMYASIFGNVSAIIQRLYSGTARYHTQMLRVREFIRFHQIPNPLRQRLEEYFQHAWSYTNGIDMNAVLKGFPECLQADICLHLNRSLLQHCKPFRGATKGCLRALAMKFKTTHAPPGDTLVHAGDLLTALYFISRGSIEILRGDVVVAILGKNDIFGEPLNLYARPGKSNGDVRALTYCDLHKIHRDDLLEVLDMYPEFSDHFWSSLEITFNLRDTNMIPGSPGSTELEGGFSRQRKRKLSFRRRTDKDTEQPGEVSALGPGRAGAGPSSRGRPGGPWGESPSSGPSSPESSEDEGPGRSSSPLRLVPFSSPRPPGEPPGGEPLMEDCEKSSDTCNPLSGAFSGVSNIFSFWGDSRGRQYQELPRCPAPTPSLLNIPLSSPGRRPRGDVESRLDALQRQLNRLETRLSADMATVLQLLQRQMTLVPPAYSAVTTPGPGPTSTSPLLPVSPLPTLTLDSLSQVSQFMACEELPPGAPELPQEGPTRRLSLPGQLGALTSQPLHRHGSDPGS

Structure (SMILES) | hERG current change (%, negative = inhibition) at 1uM
Cc1ccc(C)c(NC(=O)COc2cccc3c2CCN(Cc2ccccc2)C3=O)c1 | -5.29%
COCCCn1c(N)c(-c2nc3ccccc3n2C)c2nc3ccccc3nc21 | -0.792%
O=C(CSc1nnc(NC(=O)c2ccccc2)s1)NCC1CCCO1 (stereo not drawn) | 9.21%
CCN(Cc1ccc(N(C)C)cc1)C(C)C(=O)Nc1ccc(S(=O)(=O)N2CCCC2)cc1 (stereo not drawn) | 10.4%
CN1CCC(=NNC(=O)C(=O)Nc2ccccc2F)CC1 | 8.71%
CC1(C)C(CSc2nc3ccccc3[nH]2)C1(Cl)Cl (stereo not drawn) | 9.58%
Cc1ccc(NC(=O)COC(=O)CNC(=O)C2CCCCC2)c(Br)c1 | 10.8%
NC(=O)C1CCN(S(=O)(=O)c2ccc3c(c2)OCCO3)CC1 | 8.22%
CC(C)c1ccc(/C=C/C2=NNC(=O)CC2)cc1 | -0.053%
COc1ccc(S(=O)(=O)N2CCC3(CC2)OCCO3)cc1 | 5.3%
COc1cccc(CNc2ncn[nH]2)c1OCc1ccccc1F | 4.14%
CCOc1ccc(N(CC(=O)Nc2c(C)cccc2C)S(=O)(=O)c2c(C)[nH]c(=O)[nH]c2=O)cc1 | 15.5%
Cc1ccc(-c2c[nH]c(=S)n2-c2ccccc2F)cc1 | 15.4%
O=C(OCCNC(=O)c1cc2ccccc2oc1=O)c1cccnc1 | 7.47%
O=C(Nc1ccccc1)N1CCN(C(=O)Nc2ccccc2)CC1 | -4.42%
CCOC(=O)c1sc(-n2[nH]c(C)cc2=O)nc1C | -7.86%
COC(=O)C1=C(c2cccc(C#N)c2)C[C@@H]2CC[C@H]1N2C(=O)NCC1CC1 | 13.7%
CC1CCC(Nc2nnnn2-c2ccccc2)CC1 (stereo not drawn) | 13.3%
O=C(COC(=O)CCN1C(=O)c2cccc([N+](=O)[O-])c2C1=O)NCc1ccccc1 | 23%

Structure (SMILES) | hERG current change (%, negative = inhibition) at 1uM
Brc1cccc(CSc2nnc(-c3ccncc3)o2)c1 | -1.12%
CCOC(=O)c1ccccc1NC(=O)Nc1ccc(OC)c(OC)c1 | -4.33%
Cc1oc(CSCCSCc2cc(C(=O)O)c(C)o2)cc1C(=O)O | 16.7%
Brc1ccc(NC(c2ccccc2)c2ccncc2)cc1.Cl (stereo not drawn) | 17.3%
CCc1ccc2nc(NC(=O)C3CCN(c4ncnc5sc(C)c(C)c45)CC3)sc2c1 | 13.8%
CCOc1ccc(CCNC(=O)c2cc3sccc3n2C)cc1OCC | -2.49%
COc1ccc(/C=N/NC2=NS(=O)(=O)c3ccccc32)cc1OC | 16.4%
O=C(CSc1ccc([N+](=O)[O-])cn1)Nc1ccccc1N1CCOCC1 | 5.87%
C=C(C)Cn1c(-c2ccccc2)nc2ccccc21 | 0.175%
CC(C)CNS(=O)(=O)c1ccc(CCC(=O)O)cc1 | 10.9%
COc1ccc(CCNC(=O)c2csc3c2CCCC3)cc1OC | 16%
CC(C)c1ccc(N2C(=O)NC(=O)/C(=C/C=C/c3ccco3)C2=O)cc1 | 3.71%
COc1ccc(OC)c(NC(=O)c2cc3ccccc3o2)c1 | 12.8%
COCCN(C(=S)Nc1c(C)cc(C)cc1C)C(C)c1cccnc1 (stereo not drawn) | 11.6%
NS(=O)(=O)c1cccc(NC(=O)COC(=O)CCSc2ccccc2)c1 | -5.4%
O=C(Nc1ccnn1C1CCN(C(=O)c2c(F)cccc2F)CC1)C1CC1 | 0.172%
CN(C)c1ccc(-c2nnc(-c3ccc(S(=O)(=O)C(F)F)cc3)o2)cc1 | 2.22%
CC(C)(C)NC(=O)CSc1nnc(-c2ccco2)n1Cc1ccco1 | -6.99%
CC(C)C(=O)NCCc1nc(-c2ccccc2)no1 | -2.6%

Structure (SMILES) | hERG current change (%, negative = inhibition) at 1uM
C[C@H](NC(=O)[C@H]1N2C(=O)c3ccccc3C2SC1(C)C)C(=O)NCC1CCCO1 (stereo partly drawn) | 36.2%
C#CCOCCOCCOCCNc1nc(N2CCN(C(=O)C([C@@H](C)CC)n3cc(C(N)COC(=O)C(F)(F)F)nn3)CC2)nc(N2CCN(C(=O)[C@H](Cc3cc4ccccc4[nH]3)n3cc(C(N)CO)nn3)CC2)n1.Cl (stereo partly drawn) | 7.2%
CC(C)(C)NC(=O)CSc1nncn1NCc1cccc2ccccc12 | 8.57%
O=C1NC[C@H](c2ccccc2)N(CCc2cccc(F)c2)C1=O | 11.1%
CCOCCCNC(=S)N1C2CCC1CC(NC(=O)NC1CCCCC1)C2 (stereo not drawn) | 1.61%
CC1CCc2cc(F)ccc2N1C(=O)C12CCC(C)(C(=O)O1)C2(C)C (stereo not drawn) | 7.96%
N#Cc1c(-c2ccncc2)c2c([nH]c1=O)-c1ccccc1OC2 | 20.9%
Cc1ccc(NC(=O)c2ccc(OC(=S)N3CCOCC3)cc2)cc1 | 5.81%
Cc1ccccc1N1C(=O)c2ccccc2C1O (stereo not drawn) | 13.4%
COc1ccccc1NC(=O)/C(C#N)=C/c1ccncc1 | 19%
C/C(=N/Nc1nc(-c2ccccc2)cc(-c2ccc(F)cc2)n1)c1cccc(N)c1 | 3.31%
COc1ccc(N2CCN(c3nc4ccccc4nc3NS(=O)(=O)c3ccccc3)CC2)cc1 | 9.73%
O=C(O)c1cccnc1Nc1cccc(C(F)(F)F)c1 | 16.5%
O=C(Nc1ccc(SC(F)F)cc1)C12CCC(CC1)C2 | 5.66%
CCCCOc1ccccc1-c1cc(C(=O)O)[nH]n1 | 8.23%
COc1ccc(-c2nnc(SCc3cc(C)cc(C)c3)o2)cc1 | 7.38%
CCN(C(=O)Cc1c(C(=O)O)n(C)c2ccccc12)c1cc(OC)ccc1OC | 8.98%
Nc1ccc2nc(SCC(=O)c3ccccc3)sc2c1 | 10.8%
CCN1CCN(C(CNS(=O)(=O)c2ccc(OC)c(C)c2)c2cccnc2)CC1 (stereo not drawn) | -27.5%
